In the supplement of paper PMC4604168 (melanoma cell lines):
This is one part of the list. Most values come without repeats; read them as rough.

Each molecule was assayed on MEL-HO (assay: cell count relative to DMSO control; melanoma cells; higher = more viable cells). Conditions: library dose: standard library concentration; 72 h.
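Also: cells treated in 1,536-well plates, then fixed and DAPI-stained, with nuclei counted from automated high-throughput microscope images.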

Row | SMILES | cell count [%]
1 | CCc1ccc(CCOc2ccc(CC3SC(=O)NC3=O)cc2)nc1 (stereo not drawn) [pioglitazone] + Cc1cc([N+](=O)[O-])ccc1NS(=O)(=O)c1cc(Cl)ccc1Cl [FH535] (first compound 10 µM, partner dose 5 µM) | 51.1
2 | CCCCCCCCc1ccc(CCC(N)(CO)CO)cc1 [fingolimod] + COCC[n+]1c2c(n(Cc3cnccn3)c1C)C(=O)c1ccccc1C2=O [YM155] (first compound 10 µM, partner dose 0.002 µM) | 2.13
3 | NC(=O)c1ccc(N(C(N)=O)c2c(F)cccc2F)nc1-c1ccc(F)cc1F + O=C1NC(=O)/C(=C/c2ccc(-c3ccc(F)cc3O)o2)S1 [AS252424] (first compound 2 µM, partner dose 5 µM) | 83.4
4 | NC(=O)c1ccc(N(C(N)=O)c2c(F)cccc2F)nc1-c1ccc(F)cc1F + Cc1nc(Nc2ncc(C(=O)Nc3c(C)cccc3Cl)s2)cc(N2CCN(CCO)CC2)n1 [dasatanib] (first compound 2 µM, partner dose 0.02 µM) | 64.9
5 | CC(C)(C)c1cnc(CSc2cnc(NC(=O)C3CCNCC3)s2)o1 + COc1cc2c(Oc3ccc4[nH]c(C)cc4c3F)ncnc2cc1OCCCN1CCCC1 [cediranib] (first compound 0.05 µM, partner dose 2 µM) | 99.6
6 | Cc1ccc(NC(=O)c2cccc(N(C)C)c2)cc1NC(=O)c1ccc(O)cc1 + CO[C@@H]1[C@H](N(C)C(=O)c2ccccc2)C[C@H]2O[C@]1(C)n1c3ccccc3c3c4c(c5c6ccccc6n2c5c31)C(=O)NC4 [Midostaurin] (first compound 10 µM, partner dose 0.4 µM) | 77.1
7 | CCCCCCCCc1ccc(CCC(N)(CO)CO)cc1 [fingolimod] + Oc1nc(-c2ccc(C(F)(F)F)cc2)nc2c1CSCC2 [XAV939] (first compound 10 µM, partner dose 10 µM) | 85.1
8 | Cc1ccc(NC(=O)c2cccc(N(C)C)c2)cc1NC(=O)c1ccc(O)cc1 + CN(NC(=O)CC(=O)NN(C)C(=S)c1ccccc1)C(=S)c1ccccc1 [STA4783] (first compound 10 µM, partner dose 0.03 µM) | 67.2
